Measurements as given in patent US20240076343A1 (CEPHALON, published 2024).

T1: high-affinity hIL-2 receptor (IL-2Rαβγ) (human, UniProt P01589 22-272; P14784 27-551; P31785 23-369)
T1 sequence 1: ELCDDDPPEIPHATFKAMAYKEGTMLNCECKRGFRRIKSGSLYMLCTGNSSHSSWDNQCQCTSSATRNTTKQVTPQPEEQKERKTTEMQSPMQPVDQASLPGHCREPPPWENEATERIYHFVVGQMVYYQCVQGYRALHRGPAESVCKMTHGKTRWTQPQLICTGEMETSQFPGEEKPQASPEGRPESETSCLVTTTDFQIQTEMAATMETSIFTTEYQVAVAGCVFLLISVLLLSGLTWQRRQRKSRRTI
T1 sequence 2: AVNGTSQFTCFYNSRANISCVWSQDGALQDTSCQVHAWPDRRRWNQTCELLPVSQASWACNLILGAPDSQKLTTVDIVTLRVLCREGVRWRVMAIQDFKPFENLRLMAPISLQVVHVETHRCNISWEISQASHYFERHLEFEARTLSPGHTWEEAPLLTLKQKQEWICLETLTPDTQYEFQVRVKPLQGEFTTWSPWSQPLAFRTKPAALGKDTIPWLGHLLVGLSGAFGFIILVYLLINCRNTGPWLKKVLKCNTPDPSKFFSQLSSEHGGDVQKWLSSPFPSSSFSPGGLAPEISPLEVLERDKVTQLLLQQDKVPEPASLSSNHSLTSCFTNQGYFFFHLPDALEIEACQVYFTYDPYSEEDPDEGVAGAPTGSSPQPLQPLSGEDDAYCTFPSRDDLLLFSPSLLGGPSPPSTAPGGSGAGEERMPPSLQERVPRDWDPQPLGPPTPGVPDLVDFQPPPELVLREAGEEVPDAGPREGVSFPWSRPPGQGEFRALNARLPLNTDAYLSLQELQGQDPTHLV
T1 sequence 3: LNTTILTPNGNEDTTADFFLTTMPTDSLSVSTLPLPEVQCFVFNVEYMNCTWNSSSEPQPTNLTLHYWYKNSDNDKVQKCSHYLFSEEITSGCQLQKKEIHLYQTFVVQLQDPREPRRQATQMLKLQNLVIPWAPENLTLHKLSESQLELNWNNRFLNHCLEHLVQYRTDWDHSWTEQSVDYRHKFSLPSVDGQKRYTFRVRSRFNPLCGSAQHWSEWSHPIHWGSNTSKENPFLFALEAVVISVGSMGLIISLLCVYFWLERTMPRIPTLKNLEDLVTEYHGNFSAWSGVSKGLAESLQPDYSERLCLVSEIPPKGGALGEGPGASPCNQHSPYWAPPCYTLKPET

T2: intermediate affinity hIL-2 receptor complex (IL-2Rβγ) (human, UniProt P14784 27-551; P31785 23-369)
T2 sequence 1: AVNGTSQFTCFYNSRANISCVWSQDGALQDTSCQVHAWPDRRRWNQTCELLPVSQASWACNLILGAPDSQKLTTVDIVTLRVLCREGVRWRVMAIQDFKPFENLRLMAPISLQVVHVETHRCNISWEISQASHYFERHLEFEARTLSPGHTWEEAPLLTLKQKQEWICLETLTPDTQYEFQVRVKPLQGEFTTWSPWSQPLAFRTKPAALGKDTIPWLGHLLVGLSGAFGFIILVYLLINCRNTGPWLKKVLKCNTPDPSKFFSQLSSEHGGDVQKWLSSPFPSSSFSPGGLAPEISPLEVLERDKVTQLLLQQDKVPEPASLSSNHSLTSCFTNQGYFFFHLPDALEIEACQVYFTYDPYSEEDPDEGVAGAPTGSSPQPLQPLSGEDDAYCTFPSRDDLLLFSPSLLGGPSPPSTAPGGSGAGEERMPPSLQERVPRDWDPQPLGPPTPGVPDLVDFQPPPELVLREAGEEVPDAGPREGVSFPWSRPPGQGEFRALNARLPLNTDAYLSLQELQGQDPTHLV
T2 sequence 2: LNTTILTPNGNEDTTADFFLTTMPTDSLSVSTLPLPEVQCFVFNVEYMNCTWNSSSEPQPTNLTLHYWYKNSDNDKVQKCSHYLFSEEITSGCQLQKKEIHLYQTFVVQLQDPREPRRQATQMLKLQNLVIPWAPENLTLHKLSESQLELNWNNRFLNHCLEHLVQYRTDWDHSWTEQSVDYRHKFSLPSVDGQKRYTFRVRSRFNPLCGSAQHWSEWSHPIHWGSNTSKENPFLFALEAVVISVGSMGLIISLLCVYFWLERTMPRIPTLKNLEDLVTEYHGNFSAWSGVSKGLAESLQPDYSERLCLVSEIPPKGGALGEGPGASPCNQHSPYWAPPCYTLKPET

T3: high-affinity hIL-2 receptor (IL-2Rαβγ) on NK-92 cells (human, UniProt P01589 22-272; P14784 27-551; P31785 23-369)
T3 sequence 1: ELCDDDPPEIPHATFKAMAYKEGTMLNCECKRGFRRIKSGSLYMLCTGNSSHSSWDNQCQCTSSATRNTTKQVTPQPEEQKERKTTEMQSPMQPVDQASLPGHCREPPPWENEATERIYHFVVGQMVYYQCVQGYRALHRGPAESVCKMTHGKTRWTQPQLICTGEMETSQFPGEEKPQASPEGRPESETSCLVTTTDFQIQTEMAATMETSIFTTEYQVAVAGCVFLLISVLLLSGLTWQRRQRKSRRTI
T3 sequence 2: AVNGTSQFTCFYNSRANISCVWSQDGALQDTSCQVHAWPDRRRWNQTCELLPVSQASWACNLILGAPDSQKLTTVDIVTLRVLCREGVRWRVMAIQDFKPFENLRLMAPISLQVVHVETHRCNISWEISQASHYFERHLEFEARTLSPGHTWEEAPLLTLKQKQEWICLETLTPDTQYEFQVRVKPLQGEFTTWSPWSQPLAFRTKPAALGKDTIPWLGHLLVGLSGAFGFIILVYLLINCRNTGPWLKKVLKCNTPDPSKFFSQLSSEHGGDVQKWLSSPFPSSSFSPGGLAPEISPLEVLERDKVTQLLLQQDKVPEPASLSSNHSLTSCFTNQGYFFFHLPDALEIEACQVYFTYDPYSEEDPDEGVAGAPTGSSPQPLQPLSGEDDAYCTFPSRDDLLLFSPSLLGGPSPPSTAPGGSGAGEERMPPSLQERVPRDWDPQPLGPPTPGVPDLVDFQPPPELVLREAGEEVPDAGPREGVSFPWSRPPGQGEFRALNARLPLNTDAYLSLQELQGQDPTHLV
T3 sequence 3: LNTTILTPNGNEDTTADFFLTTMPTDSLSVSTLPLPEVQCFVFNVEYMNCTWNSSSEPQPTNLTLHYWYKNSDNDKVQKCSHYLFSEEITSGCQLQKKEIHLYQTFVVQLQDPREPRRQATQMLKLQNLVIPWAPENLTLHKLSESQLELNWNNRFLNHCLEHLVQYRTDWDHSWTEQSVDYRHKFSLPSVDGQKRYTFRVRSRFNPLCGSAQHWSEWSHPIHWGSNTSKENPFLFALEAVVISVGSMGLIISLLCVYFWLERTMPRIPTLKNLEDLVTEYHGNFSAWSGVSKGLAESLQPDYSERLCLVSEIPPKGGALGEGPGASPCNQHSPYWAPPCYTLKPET

T4: intermediate-affinity hIL-2 receptor (IL-2Rβγ) on TF1+IL-2Rβ cells (human, UniProt P14784 27-551; P31785 23-369)
T4 sequence 1: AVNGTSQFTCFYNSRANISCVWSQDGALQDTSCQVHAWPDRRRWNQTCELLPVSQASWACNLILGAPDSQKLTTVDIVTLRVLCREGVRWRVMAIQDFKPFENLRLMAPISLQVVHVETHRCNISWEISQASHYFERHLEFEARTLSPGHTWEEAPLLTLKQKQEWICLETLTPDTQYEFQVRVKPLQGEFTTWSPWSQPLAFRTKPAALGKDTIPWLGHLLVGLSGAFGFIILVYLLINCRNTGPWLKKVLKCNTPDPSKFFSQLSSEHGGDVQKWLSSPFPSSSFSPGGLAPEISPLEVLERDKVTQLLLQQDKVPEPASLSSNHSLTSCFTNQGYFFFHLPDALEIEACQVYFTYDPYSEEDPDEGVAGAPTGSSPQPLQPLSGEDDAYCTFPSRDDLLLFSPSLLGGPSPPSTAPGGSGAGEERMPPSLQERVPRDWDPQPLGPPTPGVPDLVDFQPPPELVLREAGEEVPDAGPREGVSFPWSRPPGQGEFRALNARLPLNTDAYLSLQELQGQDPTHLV
T4 sequence 2: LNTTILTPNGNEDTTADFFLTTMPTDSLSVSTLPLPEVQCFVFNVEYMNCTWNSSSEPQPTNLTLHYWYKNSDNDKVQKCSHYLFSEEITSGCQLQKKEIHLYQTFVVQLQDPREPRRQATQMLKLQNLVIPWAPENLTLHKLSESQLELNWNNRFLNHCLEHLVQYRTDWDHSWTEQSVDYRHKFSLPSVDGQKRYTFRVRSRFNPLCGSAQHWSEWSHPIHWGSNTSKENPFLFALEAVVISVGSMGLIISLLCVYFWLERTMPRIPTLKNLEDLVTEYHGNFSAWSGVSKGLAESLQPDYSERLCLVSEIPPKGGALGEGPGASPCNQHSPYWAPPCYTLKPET


How the values were obtained:
[1] = molecular target: T1, high-affinity hIL-2 receptor (IL-2Rαβγ); test: cell-based or functional assay
[2] = molecular target: T2, intermediate affinity hIL-2 receptor …; test: cell-based or functional assay
[3] = molecular target: T5, recombinant His-tagged human PD-1 (Acro Biosystems) (human, UniProt Q15116 in part); test: SPR Carterra LSA;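 further: antibodies or fusion proteins amine-coupled on an HC30M chip, soluble His-tagged human or cynomolgus PD-1 titrated over them, non-regenerative kinetics, constants fitted from titration curves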
T5 construct: His-tagged; also called hPD-1

[4] = molecular target: T6, recombinant His-tagged cynomolgus PD-1 (Acro Biosystems) (cynomolgus, UniProt B0LAJ3 25-170); test: SPR Carterra LSA;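 further: antibodies or fusion proteins amine-coupled on an HC30M chip, soluble His-tagged human or cynomolgus PD-1 titrated over them, non-regenerative kinetics, constants fitted from titration curves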
T6 construct: His-tagged; also called Cyno PD-1; not shown: His tag (and any linker) of the Acro Biosystems product

[5] = molecular target: T3, high-affinity hIL-2 receptor (IL-2Rαβγ) …; test: cell-based or functional assay
[6] = molecular target: T4, intermediate-affinity hIL-2 receptor …; test: cell-based or functional assay
[7] = molecular target: T4, intermediate-affinity hIL-2 receptor …; test: cell-based or functional assay; remark: listed apart in the source

T6 sequence (B0LAJ3 entry or part of it limits assumed): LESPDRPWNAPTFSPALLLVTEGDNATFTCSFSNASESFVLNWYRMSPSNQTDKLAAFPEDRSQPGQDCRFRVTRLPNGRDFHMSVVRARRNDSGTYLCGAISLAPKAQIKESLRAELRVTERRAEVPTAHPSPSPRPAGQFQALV
T5 sequence (Q15116 25-167 limits assumed): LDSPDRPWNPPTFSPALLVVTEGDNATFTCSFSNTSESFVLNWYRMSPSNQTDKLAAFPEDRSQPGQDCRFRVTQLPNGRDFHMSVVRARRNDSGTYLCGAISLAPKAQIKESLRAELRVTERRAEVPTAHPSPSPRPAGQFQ

Row | Fold change from rhIL-2 (NK-92), pSTAT5 titration [1] [fold] | Fold change from rhIL-2 (TF1 + IL-2Rβ), pSTAT5 titration [2] [fold] | Kd [3] [nM] | koff [3] [s⁻¹] | kon [3] [M⁻¹ s⁻¹] | Kd [4] [nM] | koff [4] [s⁻¹] | kon [4] [M⁻¹ s⁻¹] | Fold change from rhIL-2 (NK-92) [5] [fold] | Fold change from rhIL-2 (TF1 + IL-2Rβ) [6] [fold] | Fold decrease from rhIL-2 (TF1 + IL-2Rβ + hPD-1) [7] [fold] | Binder
1 | 2400 | > 10000 |  |  |  |  |  |  |  |  |  | 1H3-hIgG1-L6-hCD25(1-164)-L20-hIL-2 (D20S) (other) heavy: EVQLVESGGGLVQPGRSLKLSCAVSGFTFSDYAMAWVRQAPKKGLEWVATISYDGSRTYYRDSVKGRFTISRDNAKITLYLQMDSLRSEDTATYYCARHGSGYFDYWGQGVMVTVSS[not shown - human IgG1 constant region]SGGGGSELCDDDPPEIPHATFKAMAYKEGTMLNCECKRGFRRIKSGSLYMLCTGNSSHSSWDNQCQCTSSATRNTTKQVTPQPEEQKERKTTEMQSPMQPVDQASLPGHCREPPPWENEATERIYHFVVGQMVYYQCVQGYRALHRGPAESVCKMTHGKTRWTQPQLICTSGGGGSGGGGSGGGGSGGGS[not shown - about 150 residues] light: DTVLTQSPALAVSPGERVTISCRASESVRTGVHWYQQKPGQQPKLLIYGASNLESGVPARFSGSGSGTDFTLTIDPVEADDTATYFCQQSWNDPFTFGSGTKLEIKRTVAAPSVFIFPPSDEQLKSGTASVVCLLNNFYPREAKVQWKVDNALQSGNSQESVTEQDSKDSTYSLSSTLTLSKADYEKHKVYACEVTHQGLSSPVTKSFNRGEC
2 |  |  | 5.4 | 0.00083 | 150000 | 11 | 0.00097 | 88000 | > 10000 | ~3430 | ~1 | 2H7-hIgG1-LAGA-df-hIL-2 (T3A/D20A/R38E/C125A) (other, antibody-hIL-2 fusion; also called 2H7-hIgG1-LAGA-hIL-2 (T3A/D20A/R38E/C125A)) heavy: EVQLLESGGGLVQPGGSLRLSCAASGFTFKDYCMTWVRQAPGKGLEWVSAIVYSGGSTYYADSVKGRFTISRDNSKNTLYLQMNNLRAEDTAVYYCAKYTRASYFYDAMDVWGQGTTVTVSS[not shown - human IgG1 constant region with L235A G237A (EU numbers)]APASSSTKKTQLQLEHLLLALQMILNGINNYKNPKLTEMLTFKFYMPKKATELKHLQCLEEELKPLEEVLNLAQSKNFHLRPRDLISNINVIVLELKGSETTFMCEYADETATIVEFLNRWITFAQSIISTLT light: EIVLTQSPGTLSLSPGERATLSCRASQSIGKSFLAWYQQKPGQAPRLLIYDASTRAADIPARFSGSGSGTDFTLTISSLEPEDFAVYYCQQYYDWPPLSFGGGTKVEIKRTVAAPSVFIFPPSDEQLKSGTASVVCLLNNFYPREAKVQWKVDNALQSGNSQESVTEQDSKDSTYSLSSTLTLSKADYEKHKVYACEVTHQGLSSPVTKSFNRGEC
3 |  |  | 4.8 | 0.00082 | 170000 | 10 | 0.00098 | 96000 | > 10000 | ~7480 | ~1 | 2H7-hIgG4-LAGA-df-hIL-2 (T3A/D20A/R38E/C125A) (other, antibody-hIL-2 fusion; also called 2H7-hIgG4-LAGA-hIL-2 (T3A/D20A/R38E/C125A)) heavy: EVQLLESGGGLVQPGGSLRLSCAASGFTFKDYCMTWVRQAPGKGLEWVSAIVYSGGSTYYADSVKGRFTISRDNSKNTLYLQMNNLRAEDTAVYYCAKYTRASYFYDAMDVWGQGTTVTVSSASTKGPSVFPLAPCSRSTSESTAALGCLVKDYFPEPVTVSWNSGALTSGVHTFPAVLQSSGLYSLSSVVTVPSSSLGTKTYTCNVDHKPSNTKVDKRV[not shown - human IgG4 Fc with S228P L235A G237A (EU numbers)]APASSSTKKTQLQLEHLLLALQMILNGINNYKNPKLTEMLTFKFYMPKKATELKHLQCLEEELKPLEEVLNLAQSKNFHLRPRDLISNINVIVLELKGSETTFMCEYADETATIVEFLNRWITFAQSIISTLT light: EIVLTQSPGTLSLSPGERATLSCRASQSIGKSFLAWYQQKPGQAPRLLIYDASTRAADIPARFSGSGSGTDFTLTISSLEPEDFAVYYCQQYYDWPPLSFGGGTKVEIKRTVAAPSVFIFPPSDEQLKSGTASVVCLLNNFYPREAKVQWKVDNALQSGNSQESVTEQDSKDSTYSLSSTLTLSKADYEKHKVYACEVTHQGLSSPVTKSFNRGEC
